In the supplement of paper PMC10126150:
Sequences with one replicate were seen in a single cluster, so their values are uncertain.

Test system: ATP
Test: switch fluorescence ratio, 500 uM ATP over buffer (Cy3 cluster intensity, sum of 5 cycles each) (fold (ratio)); higher = stronger signal-on switching upon ATP binding; sequences stand for … in TCGTCGGCAGCGTCAGATGTGTATAAGAGACAGTTTTTTTTTTTTTTTTTTTTTTTTT…TC
Settings: aptamer strand: ATP DNA aptamer (quencher-CACCTGGGGGAGTATTGCGGAGGAAGG + anchor), 100 nM annealed; ATP concentration: 500 uM; one replicate
Outline: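 Exposure to 500 uM ATP lasted 15 min at 22 °C before imaging, and a selection-buffer image was taken beforehand, for Cy3-labelled switching-strand clusters on a modified Illumina MiSeq flow-cell annealed to 100 nM quencher-labelled ATP aptamer. Five buffer/ATP cycles were run with NaOH stripping and re-annealing between them. The fluorescence ratio per cluster is summed target-cycle over summed buffer-cycle Cy3 intensity, averaged per switch-domain sequence. Clusters outside 100-1000 RFU were excluded.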

Row | Sequence | switch fluorescence ratio
1 | TTTAACAATT | 0.972
2 | TTACTCAGCT | 1.24
3 | GTGTAACTGC | 0.989
4 | AACAGACAGC | 1.11
5 | TATACAGGGA | 1.02
6 | CCAGGGGTTC | 1.27
7 | GGTGATACCA | 1.03
8 | ACCCAACGGC | 1.24
9 | TTGGGTAAAA | 0.955
10 | GAGTCCGGGA | 1.13
11 | TCACTTTGGT | 0.996
12 | AGACTTCTTT | 0.962
13 | GACGCGGCTG | 1
14 | TCGTGCCCGA | 0.959
15 | TCAAGGAAAT | 1.03
16 | AGCTTTTTT | 0.963
17 | CGGGTGCGCT | 0.998
18 | GGGGCCTCCA | 1.01
19 | TATTGCTTAG | 0.988
20 | TACACGTCCG | 1.12
21 | ACCCGAAGAA | 1.05
22 | GACTTCGTGC | 1.06
23 | GGGAAATAAC | 1.05

Row | Sequence | switch fluorescence ratio
24 | TGTTTTGAAG | 0.979
25 | GAGCTCAGGA | 0.977
26 | TTTGCTTGGA | 1.07
27 | CTGCAACTTG | 1.17
28 | GAACGTATAT | 1.14
29 | TTGGTCTTGG | 0.977
30 | GCTATCTTAC | 1.14
31 | AGTAGGACCA | 1.02
32 | GCACTCAACC | 1.13
33 | GCGTCTGGCT | 0.986
34 | GGCGCAGAAT | 1.01
35 | GGGGAACGCT | 1.05
36 | ATACAGCATC | 1.08
37 | CAGTGCTACG | 0.994
38 | CAACGCTATT | 1.69
39 | GAGAATAAAG | 1.03
40 | ATCCAGTGAG | 1.05
41 | GTATTAGAGC | 0.934
42 | CTGCGCCCGT | 1.04
43 | GATAACGG | 1
44 | AAGTACTCCC | 1.37
45 | CATCCCACTC | 2.2
46 | GCAGACGACA | 1.55

Row | Sequence | switch fluorescence ratio
47 | ACTTACTGCA | 1.3
48 | CCAATTACTG | 1.07
49 | AGAAAAAAAT | 1.02
50 | AATGTTTAGA | 1.01
51 | TTCGCATGGG | 1.15
52 | AGCTATGATT | 0.992
53 | TCTTTTCACC | 1.04
54 | AGATTAAAG | 0.978
55 | TTAGGCGATG | 1.02
56 | CTAGGGCTAG | 0.989
57 | CAGAGGACGA | 1.02
58 | ATTGGGTGCC | 1.03
59 | AATTGGAAAG | 1.03
60 | TCTGGGCAGG | 1.03
61 | GGCTTTTAGA | 0.985
62 | TACGACTAGT | 1.01
63 | GTAATACGAG | 3.14
64 | GATCGGTTAC | 1.23
65 | CCATGTGTCC | 1.02
66 | AGTTCGCCCT | 1.06
67 | GCTATAGCTT | 1.01
68 | ACATGCCCCT | 1.01
69 | ATAGCGGGCA | 0.912

Row | Sequence | switch fluorescence ratio
70 | GCAAGCTTAG | 1
71 | TTTAACGGGT | 0.978
72 | AACATATTGA | 1.01
73 | GCCCTTGCAC | 1.02
74 | TAGGCCGATT | 1.01
75 | AGGTTTGAGG | 0.981
76 | GAATGACGCT | 0.993
77 | TATCGTACTA | 1.15
78 | AATACAATAT | 1.05
79 | GTTTATGTAT | 0.992
80 | AAGTCTAGTT | 0.975
81 | GCAAATTGAA | 0.98
82 | AAGAACCCTT | 0.985
83 | GCTAATGGGT | 0.981
84 | CAGGGCATCT | 1.04
85 | CATACGGCAA | 1.23
86 | CGTATTAATA | 1.02
87 | GCTTCAGGCA | 1.04
88 | TAGGGAAAGG | 0.965
89 | TAGTTCAGCT | 0.93
90 | TAACTAAGAA | 1.02
91 | TCATTAGAAC | 0.962
92 | ATAAATATCT | 1.03

Row | Sequence | switch fluorescence ratio
93 | ACATTTGATG | 0.948
94 | CCAGGCCAGA | 1.03
95 | AACCCAGGCC | 1.04
96 | ACACTGTAAA | 1
97 | TTATCGGT | 0.996
98 | GAATTGACTC | 0.972
99 | GTGTGAGCTG | 0.933
100 | CGCCCACGAT | 0.986
101 | CGGACGCGG | 1.16
102 | ACTCGTAACG | 1.01
103 | ATATAGACTT | 1.01
104 | ATCCTTGTTA | 0.977
105 | CAGTGGCGAC | 0.972
106 | ATTTGCTGAC | 1.09
107 | CTTGTGGGCC | 1.02
108 | ACTAAAGCAC | 1.22
109 | AAATCCCGTG | 1.03
110 | TAAAGGTAGC | 1.03
111 | ACTATGGCAG | 1.04
112 | AGGGAGTGTT | 1.01
113 | TTCAAGTAG | 1.02
114 | CGCCCATACT | 2.44
115 | TTCGGCTAC | 1.81

Row | Sequence | switch fluorescence ratio
116 | GTAGGACCGG | 0.979
117 | ATAGTGTAGA | 0.964
118 | AGTCTCTTAG | 0.998
119 | CTGGTATTGG | 1.01
120 | TCAGATAATA | 0.981
121 | GCTGAAGCTG | 1.04
122 | ATTTGATATA | 1.02
123 | TTGCTGAGTT | 0.979
124 | TGTCAGAAGA | 1.03
125 | ATGGCATATC | 1.06
126 | GGACAAAGC | 1.01
127 | CCGTCCTCAT | 1.41
128 | AATTATGCGT | 0.991
129 | CTTTGAGAAT | 1.01
130 | AGCTTGTTGG | 0.976
131 | TGAAAATTT | 1.01
132 | GACCCACCGC | 1.51
133 | TGAGTACGT | 1.01
134 | GAAATAGACC | 1
135 | CGTTTGCAT | 1.06
136 | CATGTAGCGC | 1.02
137 | ATAGAATTGC | 1.03
138 | AGCGCGATT | 1.02

Row | Sequence | switch fluorescence ratio
139 | AGATGAGACC | 0.989
140 | ATGAAAGTTT | 1.03
141 | CACATCGATA | 1
142 | ACGATGAATC | 1.06
143 | GCGGTAATGT | 0.955
144 | CTATCTTAAG | 0.992
145 | GAGGAAACA | 1.01
146 | AACTAGGATC | 0.974
147 | GCGCGGGCTT | 0.975
148 | TGGATGTAG | 0.993
149 | ATCCTTCGAA | 1.25
150 | GACGGCACGT | 1.02
151 | TAAGCGACGT | 1.01
152 | CGCTGTTTAG | 1.02
153 | CAGGGCCGCG | 1.01
154 | ATGTCATTGT | 1.02
155 | TCGGAGGCTC | 1.02
156 | TATGAGAAAC | 0.985
157 | CGTAAAGAAA | 0.986
